About 40 (2%) of roughly 1,900 compounds showed an effect of 50% or more. This is one part of the list. Positions of bridges follow the written chain, without caps; N, C: chain ends. Non-standard residues stand in square brackets, D forms with d. Residues, ends and D or L forms follow the SMILES beside them. *: point of attachment. Octanoyl(6-Me) = CCC(C)CCCCC(=O)*; Dab = NCC[CH](N)C(=O)O
target: human SGLT1 (hSGLT1) (human, UniProt P13866); assay: primary screen, percent of control activity; higher = less effect of the substance; design: single well; conditions: 50 µM
Procedure, shortened: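 Single-point screen at 50 µmol/L in CHO-hSGLT1 cells, with 160 µmol/L 1-NBD-glucose in glucose-free DMEM for 90 min at 37°C. Fluorescence from isopropanol extracts was calibrated, and CHO wild-type uptake was subtracted. Data are percent of uptake without compound.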

Sequence of human SGLT1 (hSGLT1) (P13866 whole entry, looked up): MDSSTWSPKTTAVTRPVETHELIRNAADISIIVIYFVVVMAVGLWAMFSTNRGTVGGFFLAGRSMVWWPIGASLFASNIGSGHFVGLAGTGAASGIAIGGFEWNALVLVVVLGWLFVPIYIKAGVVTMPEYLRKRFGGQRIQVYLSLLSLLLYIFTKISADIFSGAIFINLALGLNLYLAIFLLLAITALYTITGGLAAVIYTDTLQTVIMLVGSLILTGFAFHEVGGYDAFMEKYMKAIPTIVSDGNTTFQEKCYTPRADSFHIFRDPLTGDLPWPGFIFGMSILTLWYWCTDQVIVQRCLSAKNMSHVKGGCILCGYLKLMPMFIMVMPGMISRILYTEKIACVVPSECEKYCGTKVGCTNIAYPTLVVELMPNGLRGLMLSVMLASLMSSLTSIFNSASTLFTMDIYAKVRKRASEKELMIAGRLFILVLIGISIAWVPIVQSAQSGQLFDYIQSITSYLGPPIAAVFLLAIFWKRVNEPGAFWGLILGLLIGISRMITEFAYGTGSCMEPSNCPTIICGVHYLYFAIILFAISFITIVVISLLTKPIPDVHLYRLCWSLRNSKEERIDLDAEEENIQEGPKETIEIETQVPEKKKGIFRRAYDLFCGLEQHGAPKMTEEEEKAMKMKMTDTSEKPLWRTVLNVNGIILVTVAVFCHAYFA

| SMILES | NORMALIZED SGLT1 ACTIVITY (%) |
| --- | --- |
| O=C(O)c1ccccc1Nc1cccc(C(F)(F)F)c1 | 520 |
| CC(C)=CCC[C@@H](C)[C@H]1CC[C@@]2(C)C3=C(CC[C@]12C)[C@@]1(C)CC[C@H](O)C(C)(C)[C@@H]1CC3 | 148 |
| C=C1C2CC[C@@]3(C)[C@H](c4ccoc4)OC(=O)C[C@]13O[C@H]1C[C@H](OC(C)=O)C(C)(C)[C@H](CC(=O)OC)[C@@]21C | 81 |
| O=C([O-])CF.[Na+] | 96 |
| O=c1[nH]cc(F)c(=O)[nH]1 | 89 |
| NCCCC[C@H](N[C@@H](CCc1ccccc1)C(=O)O)C(=O)N1CCC[C@H]1C(=O)O | 99 |
| C[C@H]1O[C@@H](O[C@H]2[C@@H](O)C[C@H](O[C@H]3[C@@H](O)C[C@H](O[C@H]4CC[C@@]5(C)[C@H](CC[C@@H]6[C@@H]5C[C@@H](O)[C@]5(C)[C@@H](C7=CC(=O)OC7)CC[C@]65O)C4)O[C@@H]3C)O[C@@H]2C)C[C@H](O)[C@@H]1O | 135 |
| CC1=C(C(=O)O)N2C(=O)[C@@H](NC(=O)[C@H](N)C3=CCC=CC3)C2SC1 (stereo partly drawn) | 110 |
| Nc1nc(=O)c2c([nH]1)NCC(CNc1ccc(C(=O)N[C@@H](CCC(=O)[O-])C(=O)[O-])cc1)N2C=O.[Ca+2] (stereo partly drawn) | 135 |
| COc1cc([C@@H]2c3cc4c(cc3[C@H](OC(C)=O)[C@H]3COC(=O)[C@H]23)OCO4)cc(OC)c1OC | 73 |
| C=C(C)[C@H]1Cc2c(ccc3c2O[C@@H]2COc4cc(OC)c(OC)cc4[C@@H]2C3=O)O1 | 251 |
| Cl.O=C(O)C1=CCNCC1 | 111 |
| CC(=O)N1CCCC1C(=O)O (stereo not drawn) | 122 |
| CCC[C@@H]1CCCCN1 | 85 |
| COc1ccc(C2COc3cc(O)ccc3C2)c(OC)c1O (racemic) | 128 |
| C[N+](C)(C)CCO.[Cl-] | 97 |
| O=[N+]([O-])O[C@H]1CO[C@H]2[C@@H]1OC[C@H]2O[N+](=O)[O-] | 100 |
| CC/C(=C(/CC)c1ccc(O)cc1)c1ccc(O)cc1 | 82 |
| CN(N=O)C(=O)N[C@@H]1[C@@H](O)[C@H](O)[C@@H](CO)O[C@@H]1O | 94 |
| C#CCCCCCCCCCCCC(=O)CC(O)COC(C)=O (stereo not drawn) | 120 |
| Br.CN1C2C[C@H](OC(=O)[C@H](CO)c3ccccc3)C[C@H]1[C@H]1OC21 (stereo partly drawn) | 109 |
| CC(C)N(CCC(C(N)=O)(c1ccccc1)c1ccccn1)C(C)C.O=P(O)(O)O (stereo not drawn) | 86 |
| CCN(CC)CCNC(=O)c1cc(Cl)c(N)cc1OC.Cl | 107 |

| SMILES | NORMALIZED SGLT1 ACTIVITY (%) |
| --- | --- |
| COc1ccccc1OCC(O)CO (stereo not drawn) | 100 |
| CNc1ccccc1C(=O)N1CCc2c([nH]c3ccccc23)C1=O | 73 |
| Cc1c(N(C)CS(=O)(=O)[O-])c(=O)n(-c2ccccc2)n1C.[Na+] | 96 |
| O=c1ccc2cc(O)c(O)cc2o1 | 134 |
| Cc1cc(O)c(C)c(O)c1C(=O)O | 102 |
| Cl.Cl.NCCCCN | 106 |
| COc1ccc2c(c1)OC[C@@H](Cc1ccc(OC)c(OC)c1)[C@@H]2O | 155 |
| CC1(C)CC2C1CC[C@]1(CBr)CCC3C(CC(=O)O)C(=O)O[C@@]32C1 (stereo partly drawn) | 132 |
| COP(N)(=O)SC (stereo not drawn) | 91 |
| CC1(C)S[C@@H]2[C@H](NC(=O)[C@H](N)c3ccc(O)cc3)C(=O)N2[C@H]1C(=O)O | 116 |
| CCC(C)CCCCC(=O)NC(CCN)C(=O)NC(C(=O)NC(CCN)C(=O)NC1CCNC(=O)C(C(C)O)NC(=O)C(CCN)NC(=O)C(CCN)NC(=O)C(CC(C)C)NC(=O)C(Cc2ccccc2)NC(=O)C(CCN)NC1=O)C(C)O.O=S(=O)(O)O (stereo not drawn) ({Octanoyl(6-Me)}-[Dab]T[Dab][Dab][Dab]FL[Dab][Dab]T; lactam 4-C; configuration not given here) | 96 |
| O=C(O)Cc1cc(I)c(Oc2cc(I)c(O)c(I)c2)c(I)c1 | 218 |
| CC(=O)O.N=C(N)N/N=C/c1c(Cl)cccc1Cl | 198 |
| Cc1cccc(C(=O)O)c1O | 117 |
| C=CC1=C(C)/C(=C/c2[nH]c(Cc3[nH]c(/C=C4\NC(=O)C(C)=C4C=C)c(C)c3CCC(=O)O)c(CCC(=O)O)c2C)NC1=O | 105 |
| O=C(O)/C=C/C=C/c1ccccc1 | 216 |
| Cc1ncc(CNC(=O)N(CCCl)N=O)c(N)n1 | 108 |
| CCOc1ccc(C(=O)c2cc(O)c(OC)c(OC)c2O)cc1 | 203 |
| COc1cccc(/C=C/C(=O)O)c1C(C)C | 128 |
| CC(=O)Oc1ccc2c(c1OC(C)=O)OCC1(O)Cc3c(cc(OC(C)=O)c(OC(C)=O)c3OC(C)=O)C21 (stereo not drawn) | 100 |
| CCCCC(=O)O[C@H]1CC[C@H]2[C@@H]3CCc4cc(O)ccc4[C@H]3CC[C@]12C | 139 |
| O=C(O)c1cc(O)c2ccc(Cl)cc2n1 | 94 |
| O=C(OC[C@H]1O[C@@H](OC(=O)c2cc(O)c(O)c(OC(=O)c3cc(O)c(O)c(O)c3)c2)[C@H](OC(=O)c2cc(O)c(O)c(OC(=O)c3cc(O)c(O)c(O)c3)c2)[C@@H](OC(=O)c2cc(O)c(O)c(OC(=O)c3cc(O)c(O)c(O)c3)c2)[C@@H]1OC(=O)c1cc(O)c(O)c(OC(=O)c2cc(O)c(O)c(O)c2)c1)c1cc(O)c(O)c(OC(=O)c2cc(O)c(O)c(O)c2)c1 | 120 |

| SMILES | NORMALIZED SGLT1 ACTIVITY (%) |
| --- | --- |
| CCCCCCCCCc1ccc(O)cc1 | 107 |
| CO/N=C(\C(=O)N[C@@H]1C(=O)N2C(C(=O)OCOC(=O)C(C)(C)C)=C(/C=C\c3scnc3C)CS[C@H]12)c1csc(N)n1 | 121 |
| Cl.NCCCCC(=O)O | 123 |
| CC(C(=O)O)c1ccc(-c2ccccc2)c(F)c1 (stereo not drawn) | 243 |
| CCCCCCOc1ccccc1C(N)=O | 235 |
| C[C@]12CCC3c4ccc(O)cc4CCC3C1CC[C@@H]2O (stereo partly drawn) | 128 |
| C[N+]12CCC(CC1)C(OC(=O)C(O)(c1ccccc1)c1ccccc1)C2.[Br-] (stereo not drawn) | 103 |
| COc1ccc2c(c1O)-c1c(OC)c(OC)cc3c1[C@H](C2)N(C)CC3 | 84 |
| N[C@@H](Cc1ccccc1)C(=O)N[C@@H](Cc1ccc(O)cc1)C(=O)O (H-Phe-Tyr-OH) | 112 |
| COc1c2occc2cc2ccc(=O)oc12 | 464 |
| CC1CCc2cc(F)cc3c(=O)c(C(=O)O)cn1c23 (stereo not drawn) | 191 |
| O=C(/C=C/c1ccccc1)c1ccc(O[C@@H]2O[C@H](CO)[C@@H](O)[C@H](O)[C@H]2O)cc1O | 106 |
| Cc1cc(=O)c2c(O)c3c(cc2o1)OC(C)(C)CC3 | 138 |
| CC1(C)[C@@H]2CC[C@@]1(C)C(=O)C2 | 108 |
| C#C[C@]1(O)CCC2C3CCc4cc(O)ccc4C3CC[C@@]21C (stereo partly drawn) | 99 |
| CC(=O)Nc1ccccc1 | 112 |
| Nc1ccc(C(=O)[O-])c(O)c1.[Na+] | 140 |
| COc1ccc(-c2cc(=O)c3cc(OC)ccc3o2)cc1 | 109 |
| COc1cc(OC)c2c(=O)c(-c3ccc4c(c3)OCO4)coc2c1 | 142 |
| NC(Cc1ccc(Cl)cc1)C(=O)O (stereo not drawn) | 82 |
| CC(C)N1C(=O)c2ccccc2NS1(=O)=O | 115 |
| CC(=O)c1c(O)c(C)c(O)c2c1OC1=CC(=O)C(C(C)=O)C(=O)C12C (stereo not drawn) | 220 |
| Nc1nc2c(ncn2[C@H]2C[C@H](O)[C@@H](CO)O2)c(=O)[nH]1 | 152 |

| SMILES | NORMALIZED SGLT1 ACTIVITY (%) |
| --- | --- |
| CC(C)[C@]12O[C@H]1[C@@H]1O[C@@]13[C@@]1(C)CCC4=C(COC4=O)[C@@H]1C[C@@H]1O[C@@]13C2=O | 125 |
| C[C@@H]([C@H](O)c1ccccc1)N(C)C | 115 |
| COc1ccc(-c2coc3c(OC)c(OC)cc(OC)c3c2=O)cc1 | 274 |
| CC(C)=CCc1c(O)cc2occ(-c3ccc4c(c3)OCO4)c(=O)c2c1O | 135 |
| COc1ccc2c(C)cc(=O)oc2c1 | 124 |
| CC(COc1ccccc1)N(CCCl)Cc1ccccc1.Cl (stereo not drawn) | 35 |
| COc1ccc([C@@H]2CC(=O)c3c(O)cc(O[C@@H]4O[C@H](CO[C@H]5O[C@@H](C)[C@H](O)[C@@H](O)[C@H]5O)[C@@H](O)[C@H](O)[C@H]4O)cc3O2)cc1O | 96 |
| CN(C)/N=N/c1[nH]cnc1C(N)=O | 99 |
| COc1cc([C@@H]2c3cc4c(c(O)c3C[C@H]3COC(=O)[C@@H]32)OCO4)cc(OC)c1OC | 118 |
| C[C@H](COc1ccccc1)N[C@H](C)[C@H](O)c1ccc(O)cc1.Cl | 119 |
| CC(C)Cn1c(=O)n(C)c(=O)c2nc[nH]c21 | 114 |
| CC(C)=CCCC1(C)C=Cc2c(O)c3c(c(CC=C(C)C)c2O1)OC12C(=CC4CC1C(C)(C)OC2(C/C=C(/C)C(=O)O)C4O)C3=O (stereo not drawn) | 174 |
| N.N.[Cl][Pt][Cl] | 90 |
| O=C(/C=C/c1ccc(O)c(O)c1)OCCc1ccccc1 | 245 |
| O=C(O)CC[N+](=O)[O-] | 90 |
| NC(=O)c1cc[n+](CC2=C(C(=O)O)N3C(=O)[C@@H](NC(=O)[C@@H](c4ccccc4)S(=O)(=O)[O-])[C@H]3SC2)cc1 | 185 |
| CCCCCCCCCc1ccc(OCCOCCOCCOCCOCCOCCOCCOCCOCCO)cc1 | 68 |
| O=C(O)c1cn(C2CC2)c2cc(N3CCNCC3)c(F)cc2c1=O | 76 |
| CC1(C)S[C@@H]2[C@H](NC(=O)[C@H](NC(=O)N3CCNC3=O)c3ccccc3)C(=O)N2[C@H]1C(=O)O | 100 |
| Nc1nc(/C(=C/CC(=O)O)C(=O)N[C@@H]2C(=O)N3C(C(=O)O)=CCS[C@H]23)cs1 | 80 |
| C=C1C(N)CC2CC1C2(C)C.Cl (stereo not drawn) | 73 |

Reference: PMC6664820, “Novel natural and synthetic inhibitors of solute carriers SGLT1 and SGLT2” (Pharmacology Research & Perspectives, 2019)
